Measurements: paper PMC10668032
The other results are listed elsewhere or left out. At the low end of the ranking the order means little.

Target: SIX1 homeodomain (reference allele) (UniProt Q15475)
Test: universal protein binding microarray
Details: Universal all-10-mer PBM (8x60K, AMADID 030236), 300 nM GST-tagged protein, Alexa Fluor 488 anti-GST; buffer, salt, pH and temperature not stated; high values mean tight binding; most listed sequences are background and not binding sites; double strand, one strand shown

Row | Sequence | binding signal [E-score]
1 | CGCTCGCC | -0.0508
2 | TACCCCGA | 0.261
3 | TATCACAA | 0.385
4 | AGGAGTCG | -0.197
5 | AACTGTAC | -0.211
6 | TCACGGCA | -0.0582
7 | ACAATCAA | -0.176
8 | CAAGCCCC | -0.0421
9 | GCAGTGAA | -0.183
10 | AACGGCTT | -0.322
11 | GGTTATTA | 0.0464
12 | ATCCAATC | 0.222
13 | ACTTTGCA | -0.0812
14 | ACAGGCGG | 0.0614
15 | AAAAGGTC | -0.309
16 | CATCGTAG | 0.00944
17 | CGCATTCA | -0.219
18 | AGCCCTCG | -0.111
19 | CCGACTAG | -0.144
20 | AGGTGCGC | -0.241
21 | ATCGACTC | 0.0791
22 | AGCGAACT | -0.302
23 | GCAGCTAC | -0.191
24 | CGATGTTC | 0.0122
25 | AGACGACA | 0.0274

Row | Sequence | binding signal [E-score]
26 | CAGGAGGC | -0.13
27 | AGATTTCA | -0.126
28 | ATGGCGTG | -0.0766
29 | AAACGGTA | 0.14
30 | CTTCTCTA | -0.177
31 | ATGTGAGG | 0.061
32 | ACAGTATG | -0.039
33 | AAGGGGGC | -0.033
34 | ACAATTAT | -0.0266
35 | AGTCTCGG | 0.0952
36 | ACAACTAT | -0.069
37 | AGTTTCAG | -0.265
38 | GCTGCCAA | -0.204
39 | CTAGAACC | -0.0929
40 | CAGGCAGA | 0.0477
41 | ACTTCCTA | -0.0569
42 | GTTAGCCA | -0.15
43 | AAGGAGCG | -0.0914
44 | AGTTTATG | -0.118
45 | ACTGGACG | -0.0844
46 | CGCTGGCA | 0.0153
47 | AGCTGGTA | 0.0486
48 | TACTCTGA | 0.0508
49 | GCGGGAGA | 0.0155
50 | CCACCGAA | -0.0521

Row | Sequence | binding signal [E-score]
51 | ATCAGTTC | 0.0601
52 | GTATCTAA | 0.374
53 | CCTTACAA | -0.175
54 | GATTTGGA | -0.0655
55 | CCTGGCAG | -0.121
56 | AGTTTTTA | -0.185
57 | AACACGTG | -0.0953
58 | AACGACCT | -0.101
59 | AGTGTTGA | -0.0781
60 | CGTCATGC | -0.0345
61 | GCGGGACA | -0.0765
62 | GCATAGTA | 0.102
63 | CTAGGCAG | -0.299
64 | GCTCCACA | -0.138
65 | AGTCTGTG | -0.16
66 | AACTGGCT | -0.151
67 | AGAGTCTC | -0.136
68 | CCTTTAAC | -0.094
69 | AATGACAA | -0.16
70 | CACTTCCG | -0.0971
71 | AGATATAT | 0.337
72 | AGGTTGGG | -0.212
73 | ATGTATGC | -0.081
74 | CGCTGCGA | -0.15
75 | GCAGATCC | 0.272

Row | Sequence | binding signal [E-score]
76 | GTTTTATA | 0.0828
77 | AGTCTTGC | -0.208
78 | AAGGCTCG | -0.135
79 | ACTGGCTC | -0.118
80 | AGCTCACT | -0.049
81 | CGAACTGA | -0.0458
82 | ATATGCGA | 0.276
83 | AGGGAGAG | -0.144
84 | AACGACCG | -0.149
85 | CATTTTTA | -0.183
86 | CTAGCTGC | -0.278
87 | AATGGAGC | -0.0626
88 | ACCTACAA | -0.164
89 | AACCTTGC | -0.139
90 | CTATTTCA | 0.101
91 | GACTGCCC | -0.309
92 | AATTTATA | 0.0543
93 | AAGACCCG | -0.0797
94 | CACGCAGG | 0.0831
95 | ACGTGGAA | -0.225
96 | CTACGTAG | -0.168
97 | TAAGAGCA | 0.141
98 | ACGCTCCA | -0.136
99 | CGTCGACG | -0.302
100 | ACGTTGGA | -0.065

Row | Sequence | binding signal [E-score]
101 | AAATGAGG | -0.148
102 | CCAACCTC | 0.0084
103 | ATGGCGGG | 0.128
104 | AGATGTAA | 0.0301
105 | CTCATTCA | -0.197
106 | ACACGTCG | -0.289
107 | AGGGTGAC | -0.119
108 | TCACCGAA | 0.0155
109 | CGTCAAAC | -0.0201
110 | GCTGCTTA | -0.0968
111 | CAGCTTGA | 0.00556
112 | GATGAGAA | 0.132
113 | GAGCCCAA | -0.194
114 | ACAGATAA | -0.00551
115 | CAAGACGC | -0.0173
116 | AATGGCGG | -0.0358
117 | GCGGCAGC | -0.175
118 | GCTTGCGA | -0.068
119 | AGAATGTA | -0.16
120 | CTCCTCAG | 0.113
121 | ACCTTTGC | -0.118
122 | CCGCACTA | 0.0139
123 | AGTGATAA | 0.0438
124 | AAACGGGT | 0.108
125 | CAAACGCA | 0.00808

Row | Sequence | binding signal [E-score]
126 | GGATATGA | 0.356
127 | GGTGGCAA | -0.219
128 | AGTCCGCG | -0.0651
129 | GCAGGCGA | -0.121
130 | AAACCATT | -0.0781
131 | ATGGTCTG | -0.0342
132 | GAGAAGGA | 0.124
133 | AGGGTTTC | 0.0777
134 | CACGTCAC | -0.156
135 | CTGGGTAA | 0.061
136 | CCACCAGG | -0.135
137 | AAGAGTCA | -0.205
138 | ATGGACCC | -0.129
139 | AGTTGGAA | -0.242
140 | ATAGTTGA | 0.0312
141 | TAGCCGAA | 0.0577
142 | AGCTGGGG | 0.00877
143 | GCCCCGGA | 0.108
144 | GTAGAGCA | -0.0809
145 | ATAGGCAA | -0.113
146 | GCAGGACA | -0.181
147 | ATACACGA | 0.234
148 | GTGATCTA | 0.298
149 | ATATCTCC | 0.424
150 | ATAAACTA | 0.0853

Row | Sequence | binding signal [E-score]
151 | ATCCGCTA | 0.243
152 | TGAACTCA | -0.0652
153 | GTACTCAA | 0.0508
154 | CGGTCTTC | -0.098
155 | GGTGTCAA | 0.454
156 | ACAAGGAT | 0.262
157 | AACTAAAC | -0.0284
158 | ATCTAGAG | 0.15
159 | GCACGTAA | -0.277
160 | ACTCATAG | -0.0321
161 | ATAGGTTA | 0.189
162 | ATATTGGC | 0.19
163 | GCGATGCA | 0.0435
164 | GACTTCTC | -0.253
165 | CACCACCA | 0.125
166 | ATTCGGTA | 0.211
167 | CCCAGCGA | 0.015
168 | TTAATGAA | -0.00403
169 | GAACCTTA | -0.0998
170 | GAGATCGA | 0.271
171 | GAAGATCC | 0.297
172 | ACCATCTC | 0.0818
173 | ATAAGTGG | -0.00345
174 | CGTGATAA | 0.0413
175 | AGAGCTTC | -0.0935

Row | Sequence | binding signal [E-score]
176 | CCGCCCAC | -0.0409
177 | CCGCCGGC | 0.0122
178 | AAGGCGCC | -0.125
179 | CCGTAGAA | -0.17
180 | ACTTCAAT | -0.0267
181 | ATGCCAAG | 0.0457
182 | TCGAACCA | -0.25
183 | GGGGATGA | 0.267
184 | AACTCATG | -0.116
185 | ATCTTTTC | -0.0488
186 | CAGAGGTA | 0.054
187 | ACGTGCAT | 0.0421
188 | TTCAGCAA | -0.138
189 | CAAGCTGC | -0.313
190 | GGGGCCCA | -0.128
191 | CGTGCTTC | -0.0852
192 | CCCGGGTC | 0.288
193 | AGCGCATA | 0.0805
194 | CACGTTAA | -0.197
195 | AAAGGGAA | -0.164
196 | CCCTGACG | 0.0323
197 | GCTGTCCC | -0.0456
198 | CCCTCTCC | -0.000905
199 | ACAATTCC | -0.132
200 | GAACCGCA | -0.215

Row | Sequence | binding signal [E-score]
201 | GCGCCCTA | -0.114
202 | CGTAGAGA | -0.134
203 | AGGGGACC | -0.0917
204 | GGAACGTA | -0.014
205 | CGGCATCA | 0.0641
206 | GTACGAAA | -0.244
207 | CAACGCTA | -0.206
208 | AGCAGACT | -0.181
209 | CCGAATTA | -0.0101
210 | AGGACGAG | -0.0876
211 | TAAGCTTA | -0.0651
212 | CATTAAGA | -0.0476
213 | CCATAGGG | 0.162
214 | GGTTTGGA | -0.0591
215 | ACACGTGA | 0.0346
216 | AATGGTAG | -0.144
217 | GGAGCCGA | 0.0197
218 | AATTTTTC | -0.246
219 | CAAACGGG | 0.0338
